In the antibiotic and cytotoxicity screens of Wong et al. (2023) one finds cytotoxicity call and growth inhibition call data, which are given here for 30 compounds.

Test [1] relates to HSkMC (human skeletal muscle cells). Description: cytotoxicity call (relative viability < 0.9). The following applies: 10 µM.
Test [2] deals with S. aureus RN4220. Description: growth inhibition call (relative growth <= 0.2). The following applies: 50 µM.

The list shows a part of the results.

As to `CO[C@H]1CN(C)C(=O)c2ccc(NS(C)(=O)=O)cc2OC[C@H](C)N(C(=O)c2ccc3c(c2)OCO3)C[C@H]1C`, the cytotoxicity call in test [1] was “inactive”. In addition, in test [2], the growth inhibition call was “inactive”.
`C[C@H](NC(=O)N(C)C[C@H]1OCc2ccccc2-c2c(n(C)c3ccccc23)C(=O)N([C@@H](C)CO)C[C@@H]1C)c1ccccc1`: the cytotoxicity call in test [1] was “inactive”. Moreover, the growth inhibition call in test [2] was “inactive”.
In the case of `COc1ccc(S(=O)(=O)N(C)C[C@H]2Oc3ccc(N(C)C)cc3CC(=O)N([C@H](C)CO)C[C@H]2C)cc1`, the cytotoxicity call in test [1] is “inactive”. Further, the growth inhibition call in test [2] was “inactive”.
As for `COc1cccc(C#Cc2ccc([C@@H]3[C@H]4CN(S(=O)(=O)c5ccccc5C)CC(=O)N4[C@H]3CO)cc2)c1`, the cytotoxicity call in test [1] was “inactive”. In addition, in test [2], the growth inhibition call is “inactive”.
As to `COCC(=O)Nc1ccc2c(c1)[C@@H]1C[C@@H](CC(=O)N3CCOCC3)O[C@@H](CO)[C@@H]1O2`, the cytotoxicity call in test [1] is “inactive”. Besides, the growth inhibition call in test [2] was “inactive”.
For the compound `C[C@@H]1CN([C@H](C)CO)C(=O)c2cc(C#Cc3ccncc3)cnc2O[C@H]1CN(C)S(=O)(=O)c1ccccc1F`, in test [1], the cytotoxicity call was “inactive”. The growth inhibition call in test [2] is “inactive”.
As for `C[C@@H]1CCCCO[C@@H](CN(C)Cc2ccc(Cl)c(Cl)c2)[C@@H](C)CN([C@H](C)CO)C(=O)c2cc(NS(=O)(=O)c3ccc(Cl)cc3)ccc2O1`, in test [1], the cytotoxicity call was “inactive”. Further, in test [2], the growth inhibition call is “inactive”.
`CC(C)NC(=O)N(C)C[C@@H]1OCCCC[C@@H](C)Oc2ccc(NC(=O)Nc3ccccc3)cc2C(=O)N([C@@H](C)CO)C[C@H]1C`: the cytotoxicity call in test [1] was “inactive”. Further, the growth inhibition call in test [2] was “inactive”.
For the compound `C[C@H]1CN([C@@H](C)CO)C(=O)c2cccc(NC(=O)C3CCCCC3)c2O[C@@H]1CN(C)Cc1ccc(C(=O)Nc2ccccc2N)cc1`, the cytotoxicity call in test [1] is “inactive”. The growth inhibition call in test [2] was “inactive”.
On to `Cc1noc(C)c1NC(=O)N(C)C[C@@H]1Oc2c(NS(=O)(=O)c3cn(C)cn3)cccc2C(=O)N([C@H](C)CO)C[C@@H]1C`, for which the cytotoxicity call in test [1] was “inactive”. In addition, in test [2], the growth inhibition call is “inactive”.
Consider `C[C@@H]1CN([C@H](C)CO)C(=O)c2cc(NC(=O)CCN3CCOCC3)ccc2O[C@@H]1CN(C)C(=O)Nc1ccc2c(c1)OCO2`, for which the cytotoxicity call in test [1] was “inactive”. Also, the growth inhibition call in test [2] is “inactive”.
Turning to `c1cnc2nccn2c1`, the cytotoxicity call in test [1] was “inactive”. In test [2], the growth inhibition call was “inactive”.
For `COc1nn(C)cc1C(=O)Nc1ccon1`, the cytotoxicity call in test [1] is “inactive”. The growth inhibition call in test [2] is “inactive”.
Turning to `O=C(c1ccco1)N1CCNCC1`, in test [1], the cytotoxicity call was “inactive”. The growth inhibition call in test [2] is “inactive”.
Turning to `C[C@H]([C@H](C)N1CC(=O)NC(=O)C1)N1CC(=O)NC(=O)C1`, the cytotoxicity call in test [1] is “inactive”. Further, the growth inhibition call in test [2] is “inactive”.
Take `C[C@@H]1CN([C@@H](C)CO)C(=O)Cc2cc(NS(=O)(=O)c3cccs3)ccc2O[C@H]1CN(C)Cc1ccncc1`: the cytotoxicity call in test [1] was “inactive”. The growth inhibition call in test [2] was “inactive”.
`COc1ccc2c3c([nH]c2c1)[C@@H](CO)N(C[C@]13CCN(CC1)C(=O)Nc1ccccc1)C(=O)Nc1ccc(cc1)F`: the cytotoxicity call in test [1] is “inactive”. For the same compound, in test [2], the growth inhibition call is “inactive”.
As to `CC(=O)N(C)C[C@H]1Oc2cc(C#CCN(C)C)ccc2S(=O)(=O)N([C@@H](C)CO)C[C@@H]1C`, the cytotoxicity call in test [1] is “inactive”. The growth inhibition call in test [2] is “inactive”.
As to `CNC(=O)C[C@@H]1CC[C@@H]2[C@H](COC[C@@H](O)CN2C(=O)c2ccccn2)O1`, in test [1], the cytotoxicity call is “inactive”. In test [2], the growth inhibition call was “inactive”.
On to `C[C@H](CO)N1C[C@H](C)[C@H](CN(C)S(=O)(=O)c2cccs2)Oc2ncc(-c3ccc(F)cc3)cc2C1=O`, for which the cytotoxicity call in test [1] is “inactive”. For the same compound, the growth inhibition call in test [2] was “inactive”.
Regarding `C[C@@H]1CN([C@@H](C)CO)C(=O)c2cc(NS(=O)(=O)c3cccs3)ccc2O[C@@H]1CN(C)C(=O)Nc1cccc2ccccc12`, the cytotoxicity call in test [1] was “inactive”. Besides, the growth inhibition call in test [2] was “inactive”.
On to `C[C@@H]1CCCCO[C@@H](CN(C)S(=O)(=O)c2ccc(F)cc2)[C@H](C)CN([C@@H](C)CO)C(=O)c2cc(NC(=O)C3CCCCC3)ccc2O1`, for which, in test [1], the cytotoxicity call is “inactive”. In addition, in test [2], the growth inhibition call is “inactive”.
With `C[C@@H]1CN([C@H](C)CO)S(=O)(=O)c2ccc(C#Cc3ccc(F)cc3)cc2O[C@@H]1CN(C)S(C)(=O)=O`, in test [1], the cytotoxicity call is “inactive”. Further, the growth inhibition call in test [2] was “inactive”.
Turning to `Cn1cnc(CCNC(=O)C[C@H]2CC[C@H]3[C@@H](COC[C@@H](O)CN3C(=O)Nc3ccc(C(F)(F)F)cc3)O2)c1`, in test [1], the cytotoxicity call was “inactive”. Besides, the growth inhibition call in test [2] was “active”.
As to `C[C@@H]1CN([C@@H](C)CO)C(=O)Cc2cc(NC(=O)C3CC3)ccc2O[C@@H]1CN(C)S(=O)(=O)c1cccs1`, in test [1], the cytotoxicity call is “inactive”. Moreover, the growth inhibition call in test [2] is “inactive”.
For `O=C(C[C@@H]1CC[C@@H]2[C@H](COC[C@@H](O)CN2Cc2cc(F)ccc2F)O1)N[C@H]1CCN(Cc2ccccc2)C1`, the cytotoxicity call in test [1] is “inactive”. Besides, in test [2], the growth inhibition call is “inactive”.
Turning to `C[C@@H]1CCCCO[C@@H](CN(C)S(=O)(=O)c2ccccc2)[C@@H](C)CN([C@@H](C)CO)C(=O)c2cc(NC(=O)Nc3ccc4c(c3)OCO4)ccc2O1`, the cytotoxicity call in test [1] was “inactive”. The growth inhibition call in test [2] was “inactive”.
For `C[C@@H]1CN([C@@H](C)CO)C(=O)Cc2cc(NC(=O)Cc3ccccc3)ccc2O[C@@H]1CN(C)Cc1ccc(C(F)(F)F)cc1`, the cytotoxicity call in test [1] is “active”. In test [2], the growth inhibition call is “inactive”.
The corresponding values for `CCCNC(=O)N(C)C[C@@H]1Oc2cc(-c3ccc(C)cc3)ccc2S(=O)(=O)N([C@H](C)CO)C[C@@H]1C` are “inactive” and “inactive”.
In the same order, the values of `COc1ccc(CNC(=O)C[C@H]2C[C@H]3c4cc(NC(=O)NC5CCCC5)ccc4O[C@H]3[C@H](CO)O2)cc1` are “inactive” and “inactive”.
